Measured values published in paper PMC9911399, “Two distinct binding modes provide the RNA-binding protein RbFox with extraordinary sequence specificity”.
Substitutions are numbered along the chain they refer to; changes in the protein carry UniProt numbers. The list shows a part of the results.

T1: RBFOX1 RRM RbFoxmut (Fox-RRM*) (Homo sapiens, UniProt Q9NWB1 109-208, R118D;E147R;N151S;E152T)
T1 sequence: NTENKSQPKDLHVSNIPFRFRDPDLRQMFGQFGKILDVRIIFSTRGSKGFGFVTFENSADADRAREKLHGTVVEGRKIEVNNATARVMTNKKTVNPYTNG

B1: AUAUAUG (DNA:RNA)
RNA: GGGAGACCGGAAUUCAGAUUGUCCAUAUAUGUUAAAUCCCGUCGUAGCCACCA
DNA 1: CAATCTGAATTCCGGTCTCCC
DNA 2: TGGTGGCTACGACGGGATT
B2: CGAUACC (DNA:RNA)
RNA: B1 RNA with A25C, U26G, U30C, G31C
DNA 1: CAATCTGAATTCCGGTCTCCC
DNA 2: TGGTGGCTACGACGGGATT
B3: CGCACAA (DNA:RNA)
RNA: GGGAGACCGGAAUUCAGAUUGUCCCGCACAAUUAAAUCCCGUCGUAGCCACCA
DNA 1: CAATCTGAATTCCGGTCTCCC
DNA 2: TGGTGGCTACGACGGGATT
B4: ACAGUUC (DNA:RNA)
RNA: B1 RNA with U26C, U28G, A29U, G31C
DNA 1: CAATCTGAATTCCGGTCTCCC
DNA 2: TGGTGGCTACGACGGGATT
B5: GUUGUGA (DNA:RNA)
RNA: B1 RNA with A25G, A27U, U28G, A29U, U30G, G31A
DNA 1: CAATCTGAATTCCGGTCTCCC
DNA 2: TGGTGGCTACGACGGGATT
B6: UCCCCAC (DNA:RNA)
RNA: B3 RNA with C25U, G26C, A28C, A31C
DNA 1: CAATCTGAATTCCGGTCTCCC
DNA 2: TGGTGGCTACGACGGGATT
B7: GCCCUCC (DNA:RNA)
RNA: B3 RNA with C25G, G26C, A28C, C29U, A30C, A31C
DNA 1: CAATCTGAATTCCGGTCTCCC
DNA 2: TGGTGGCTACGACGGGATT
B8: GGGCAUU (DNA:RNA)
RNA: B1 RNA with A25G, U26G, A27G, U28C, G31U
DNA 1: CAATCTGAATTCCGGTCTCCC
DNA 2: TGGTGGCTACGACGGGATT
B9: GACCACG (DNA:RNA)
RNA: B1 RNA with A25G, U26A, A27C, U28C, U30C
DNA 1: CAATCTGAATTCCGGTCTCCC
DNA 2: TGGTGGCTACGACGGGATT
B10: AACUGGG (DNA:RNA)
RNA: B1 RNA with U26A, A27C, A29G, U30G
DNA 1: CAATCTGAATTCCGGTCTCCC
DNA 2: TGGTGGCTACGACGGGATT
B11: GAAACUC (DNA:RNA)
RNA: B1 RNA with A25G, U26A, U28A, A29C, G31C
DNA 1: CAATCTGAATTCCGGTCTCCC
DNA 2: TGGTGGCTACGACGGGATT
B12: ACCUCUG (DNA:RNA)
RNA: B1 RNA with U26C, A27C, A29C
DNA 1: CAATCTGAATTCCGGTCTCCC
DNA 2: TGGTGGCTACGACGGGATT
B13: UGUCGCU (DNA:RNA)
RNA: B3 RNA with C25U, C27U, A28C, C29G, A30C, A31U
DNA 1: CAATCTGAATTCCGGTCTCCC
DNA 2: TGGTGGCTACGACGGGATT
B14: UCGUUUC (DNA:RNA)
RNA: B1 RNA with A25U, U26C, A27G, A29U, G31C
DNA 1: CAATCTGAATTCCGGTCTCCC
DNA 2: TGGTGGCTACGACGGGATT
B15: AAAAUGG (DNA:RNA)
RNA: B1 RNA with U26A, U28A, A29U, U30G
DNA 1: CAATCTGAATTCCGGTCTCCC
DNA 2: TGGTGGCTACGACGGGATT
B16: ACUGCCU (DNA:RNA)
RNA: B1 RNA with U26C, A27U, U28G, A29C, U30C, G31U
DNA 1: CAATCTGAATTCCGGTCTCCC
DNA 2: TGGTGGCTACGACGGGATT
B17: GGACCGA (DNA:RNA)
RNA: B3 RNA with C25G, C27A, A28C, A30G
DNA 1: CAATCTGAATTCCGGTCTCCC
DNA 2: TGGTGGCTACGACGGGATT
B18: AGUCCUA (DNA:RNA)
RNA: B3 RNA with C25A, C27U, A28C, A30U
DNA 1: CAATCTGAATTCCGGTCTCCC
DNA 2: TGGTGGCTACGACGGGATT
B19: UUGUCUA (DNA:RNA)
RNA: B1 RNA with A25U, A27G, A29C, G31A
DNA 1: CAATCTGAATTCCGGTCTCCC
DNA 2: TGGTGGCTACGACGGGATT
B20: UUAACUG (DNA:RNA)
RNA: B1 RNA with A25U, U28A, A29C
DNA 1: CAATCTGAATTCCGGTCTCCC
DNA 2: TGGTGGCTACGACGGGATT
B21: AUCGAAC (DNA:RNA)
RNA: B1 RNA with A27C, U28G, U30A, G31C
DNA 1: CAATCTGAATTCCGGTCTCCC
DNA 2: TGGTGGCTACGACGGGATT
B22: CUUACGU (DNA:RNA)
RNA: B3 RNA with G26U, C27U, A30G, A31U
DNA 1: CAATCTGAATTCCGGTCTCCC
DNA 2: TGGTGGCTACGACGGGATT
B23: UCUCAUA (DNA:RNA)
RNA: B1 RNA with A25U, U26C, A27U, U28C, G31A
DNA 1: CAATCTGAATTCCGGTCTCCC
DNA 2: TGGTGGCTACGACGGGATT
B24: UCGUUGC (DNA:RNA)
RNA: B1 RNA with A25U, U26C, A27G, A29U, U30G, G31C
DNA 1: CAATCTGAATTCCGGTCTCCC
DNA 2: TGGTGGCTACGACGGGATT
B25: AACCAGU (DNA:RNA)
RNA: B1 RNA with U26A, A27C, U28C, U30G, G31U
DNA 1: CAATCTGAATTCCGGTCTCCC
DNA 2: TGGTGGCTACGACGGGATT
B26: UGGCCUU (DNA:RNA)
RNA: B3 RNA with C25U, C27G, A28C, A30U, A31U
DNA 1: CAATCTGAATTCCGGTCTCCC
DNA 2: TGGTGGCTACGACGGGATT
B27: AUGGCCA (DNA:RNA)
RNA: B1 RNA with A27G, U28G, A29C, U30C, G31A
DNA 1: CAATCTGAATTCCGGTCTCCC
DNA 2: TGGTGGCTACGACGGGATT
B28: UCGCCUG (DNA:RNA)
RNA: B1 RNA with A25U, U26C, A27G, U28C, A29C
DNA 1: CAATCTGAATTCCGGTCTCCC
DNA 2: TGGTGGCTACGACGGGATT
B29: UUCCCGG (DNA:RNA)
RNA: B1 RNA with A25U, A27C, U28C, A29C, U30G
DNA 1: CAATCTGAATTCCGGTCTCCC
DNA 2: TGGTGGCTACGACGGGATT
B30: GGUUCGG (DNA:RNA)
RNA: B1 RNA with A25G, U26G, A27U, A29C, U30G
DNA 1: CAATCTGAATTCCGGTCTCCC
DNA 2: TGGTGGCTACGACGGGATT
B31: CAGAUGC (DNA:RNA)
RNA: B3 RNA with G26A, C27G, C29U, A30G, A31C
DNA 1: CAATCTGAATTCCGGTCTCCC
DNA 2: TGGTGGCTACGACGGGATT

molecular target: T1, RBFOX1 RRM RbFoxmut (Fox-RRM*); experiment: EMSA; HiTS-Eq, 1 nM pool, 10 min; buffer printed only for the single-RNA assays: 10 mM Tris pH 7.5, 150 mM NaCl, 3.4 mM EDTA, 0.001% NP-40, 30 C; details: tags: His6 N-terminal (pET28a); label: 5' 32P
Method in brief: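 Purified wild-type or mutant RbFox RRM at increasing concentrations was equilibrated with 1 nM of 5′-radiolabelled RNA carrying 7 randomized nucleotides for 10 min in 50 µL. Unbound RNA was separated by 8% native PAGE and sequenced. Relative association constants came from read-count changes of each RNA species compared with the control reaction, normalised to the cognate motif.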

Binder	binding signal
B1	0.146 KA relative to UGCAUGU
B2	0.0925 KA relative to UGCAUGU
B3	0.0611 KA relative to UGCAUGU
B4	0.0875 KA relative to UGCAUGU
B5	0.124 KA relative to UGCAUGU
B6	0.118 KA relative to UGCAUGU
B7	0.0425 KA relative to UGCAUGU
B8	0.0737 KA relative to UGCAUGU
B9	0.105 KA relative to UGCAUGU
B10	0.0673 KA relative to UGCAUGU
B11	0.0464 KA relative to UGCAUGU
B12	0.0699 KA relative to UGCAUGU
B13	0.0827 KA relative to UGCAUGU
B14	0.127 KA relative to UGCAUGU
B15	0.0725 KA relative to UGCAUGU
B16	0.098 KA relative to UGCAUGU

Binder	binding signal
B17	0.162 KA relative to UGCAUGU
B18	0.0843 KA relative to UGCAUGU
B19	0.122 KA relative to UGCAUGU
B20	0.0957 KA relative to UGCAUGU
B21	0.0889 KA relative to UGCAUGU
B22	0.112 KA relative to UGCAUGU
B23	0.109 KA relative to UGCAUGU
B24	0.126 KA relative to UGCAUGU
B25	0.0873 KA relative to UGCAUGU
B26	0.0973 KA relative to UGCAUGU
B27	0.106 KA relative to UGCAUGU
B28	0.19 KA relative to UGCAUGU
B29	0.0598 KA relative to UGCAUGU
B30	0.126 KA relative to UGCAUGU
B31	0.111 KA relative to UGCAUGU
